SMILES strings stand for the structures. In all, about 43,000 compounds went through this assay and about 200 (0.47%) were called active. Roughly 12% stayed inconclusive and do not appear here. Calls come from the whole dose curve; as a rule, active = well fitted cell-killing curve with a large enough effect; inconclusive = small, poorly fitted or top-dose-only effect, or effect the other way; inactive = flat fitted curve, though single readings scatter. The list shows a part of the results.
% is set by controls: 0 for no effect and ±100 for the full control effect.

The nature of the test: Cell viability qHTS assay in S16 Pmp22-F2sN cells. Note: nearly all actives have a fitted effect of over 65% in size. The note with it: S16 Pmp22-F2sN Schwann cells viability, CellTiter-Glo, 24 h; series mostly up to 57.5 µM; activity change, negative = cytotoxicity: at the top concentration. The essentials: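 Used to flag compounds lowering reporter output through toxicity, this quantitative HTS measures ATP-based CellTiter-Glo luminescence in S16 Pmp22-F2sN Schwann cells after 24 h compound exposure at 37C.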
(Quantitative high-throughput screening tests each substance at several concentrations.)
In the case of `Cn1c(=O)oc2cc(S(=O)(=O)NCCC(=O)Nc3ccc(F)cc3F)ccc21`, the “activity change, negative = cytotoxicity” value is inactive: 2.17%.
To `CCOC(=O)c1cc2c(=O)n3ccccc3nc2n(CCOC)c1=NC(=O)c1c(-c2ccccc2Cl)noc1C` belongs inactive: 27.1%.
`COc1cccc(-n2c(=O)c3sc4ccccc4c3n(CC(=O)NC3CCCCC3)c2=O)c1`: the “activity change, negative = cytotoxicity” value is inactive: 3.9%.
With `Cc1c(NC(=O)c2ccc(-c3cccc([N+](=O)[O-])c3)o2)cccc1-c1nc2cc(Cl)ccc2o1`, the “activity change, negative = cytotoxicity” value is inactive: 6.64%.
Consider `CCCCC(=O)NC1CC(=O)N(c2ccc3c(c2)OCCO3)C1` (configuration not stated), for which the “activity change, negative = cytotoxicity” value is inactive: 2.01%.
On to `COc1ccc(CNC(=O)Cn2c(=O)nc(-c3ccccc3)c3ccccc32)cc1OC`, for which the “activity change, negative = cytotoxicity” value was inactive: 5.75%.
For the molecule `Cc1cc(OCC(=O)Nc2ncn[nH]2)ccc1Cl`, the “activity change, negative = cytotoxicity” value was inactive: 3.92%.
As for `Cc1ccc(S(=O)(=O)N(CC(=O)Nc2ccc3c(c2)OCO3)c2cc(Cl)cc(Cl)c2)cc1`, the “activity change, negative = cytotoxicity” value is inactive: -9.22%.
To `CCN(CC)S(=O)(=O)c1ccc(OC)c(-n2cnnn2)c1` belongs inactive: 14%.
Next, `COc1ccccc1C(=O)Nc1cccc(C(=O)OCc2cc(=O)n3cc(C)sc3n2)c1`: inactive: -2.77%.
With `CC1=C(c2ccc(C)c(C)c2)S(=O)(=O)NC1=NCc1ccccc1Cl`, the “activity change, negative = cytotoxicity” value was inactive: 1.52%.
With `Cc1cc(C)c(NC(=O)c2sc3nc(C)cc(C)c3c2NC(=O)c2ccccc2)c(C)c1`, the “activity change, negative = cytotoxicity” value was inactive: 0.0827%.
Consider `CCOc1ccc(CCNC(=O)c2cn(C)c3ccc(S(=O)(=O)N4CCCCC4)cc3c2=O)cc1OCC`, for which the “activity change, negative = cytotoxicity” value was inactive: 5.67%.
Next, `COc1ccc(-c2nc(C)c(CCNS(=O)(=O)c3cc(Cl)ccc3Cl)s2)cc1`: inactive: -5.9%; `CCOC(=O)c1sc2ncn(CC(=O)Nc3ccc(OCC)cc3)c(=O)c2c1C`: inactive: -3.48%.
With `CCC(=O)N1c2ccccc2CC1C(=O)NCCc1ccc(OC)c(OC)c1` (configuration not stated), the “activity change, negative = cytotoxicity” value was inactive: -10.4%.
Next, `Cc1c(C(=O)Nc2cccc(C(F)(F)F)c2)oc2ccc3c(c12)C(=O)CC(C)(C)O3`: inactive: 28.6%.
To `CCc1nc2nc(C)c(NS(=O)(=O)c3ccc(C(C)(C)C)cc3)c(=O)n2[nH]1` belongs inactive: 2.16%; to `O=C(CCn1cnc2ccccc2c1=O)NCc1ccccc1Cl`, inactive: -0.0827%; to `O=C(CNC(=O)c1ccc(F)cc1)OCc1cc(=O)n2nc(C3CC3)sc2n1`, inactive: 12.3%.
To `COc1cccc(CNC(=O)c2ccc3c(c2)c(C)c(C)n3Cc2ccccc2)c1` belongs inactive: 9.05%; to `COc1ccc(CNC(=O)c2cc3cc4cc(OC)ccc4nc3o2)cc1`, inactive: -5.55%.
With `Cc1nnc(N2CCC(C(=O)NC3CCCCC3)CC2)c2nn(-c3ccccc3)c(C)c12`, the “activity change, negative = cytotoxicity” value is inactive: 4.71%.
Next, `CCOc1ccccc1N(CC)C(=O)Cn1ncc2c([nH]c3ccccc32)c1=O`: inactive: 1.4%; `COc1ccc(OC)c(NS(=O)(=O)c2ccc3c(c2)C(C)(C)C(=O)N3C)c1`: inactive: -2.66%.
Next, `Cc1ccc(C)c(NC(=O)N2CCN(C(=O)c3nsc4ccccc34)CC2)c1`: inactive: -3.62%.
Take `COc1cc(Cl)c(C)cc1NC(=O)C1CCN(c2nc3ccccc3n3cccc23)CC1`: the “activity change, negative = cytotoxicity” value was inactive: -5.99%.
On to `O=C(c1ccccc1)N1CCN(CCc2ccncc2)CC1`, for which the “activity change, negative = cytotoxicity” value was inactive: 1.81%.
Next, `Clc1cccc(-c2ccc(CNCCSc3nnnn3-c3ccccc3)o2)c1`: inactive: -3.33%.
With `O=C(Nc1cc(-c2nc3cc(Cl)ccc3o2)ccc1Cl)c1ccco1`, the “activity change, negative = cytotoxicity” value was inactive: 1.17%.
Next, `CC1CCCN(C(=O)CSc2c3c(nc4cc(Cl)ccc24)CCCC3)C1` (configuration not stated): inactive: 4.73%.
As for `CCc1ccc(NC(=O)CSc2nc(=O)n(Cc3ccccn3)c3c2CCC3)cc1`, the “activity change, negative = cytotoxicity” value is inactive: 7.06%.
Regarding `O=C(Nc1nnc(S(=O)(=O)N2CCCc3ccccc32)s1)c1cccc(Cl)c1`, the “activity change, negative = cytotoxicity” value is inactive: -2.91%.
For the molecule `COc1cccc(C2C(C(=O)Nc3ccc(C)cc3C)=C(C)Nc3c(C(=O)Nc4ccccc4)cnn32)c1` (configuration not stated), the “activity change, negative = cytotoxicity” value was inactive: -29.9%.
Next, `COC(=O)c1ccc(C2c3c(-c4ccccc4O)n[nH]c3C(=O)N2Cc2cccnc2)cc1` (configuration not stated): inactive: -1.4%; `COc1ccc(NC(=O)c2cc(S(=O)(=O)N3CCOCC3)ccc2OC)cc1`: inactive: 1.43%.
As for `CCc1cccc(C)c1NS(=O)(=O)c1c(C(=O)N2CCC(C)CC2)c(C)n(C)c1C`, the “activity change, negative = cytotoxicity” value was inactive: 3.08%.
Take `COc1ccc(S(=O)(=O)N2CCC(C(=O)Nc3ccc(Oc4ccccc4)cc3)CC2)cc1`: the “activity change, negative = cytotoxicity” value was inactive: -8.63%.
Take `CC(C)Cn1cc(NC(=O)N2CCN(c3cccc(Cl)c3)CC2)c2ccccc2c1=O`: the “activity change, negative = cytotoxicity” value is inactive: 4.02%.
Take `Cc1ccc(C)c(N2CCN(S(=O)(=O)c3ccc4[nH]c5c(c4c3)CCCCC5)CC2)c1`: the “activity change, negative = cytotoxicity” value is inactive: 0.363%.
To `COc1ccccc1CNS(=O)(=O)c1ccc2c(c1)CC(C)N2C(C)=O` (configuration not stated) belongs inactive: -27.6%; to `O=C(NCc1ccccc1)c1ccc(CNS(=O)(=O)c2ccc(Br)cc2)cc1`, inactive: 19.3%; to `CC1CCN(S(=O)(=O)c2ccc3c(c2)N(CC(=O)NC(C)c2ccccc2)C(=O)CS3)CC1` (configuration not stated), inactive: 2.49%.
Next, `Cc1ccc(-c2nc(NC(=O)CSc3cc(C)c4ccccc4n3)ns2)cc1`: inactive: 6.65%; `Cc1cc(C)c(NC(=O)c2cc(S(=O)(=O)N3CCC4(CC3)OCCO4)ccc2F)c(C)c1`: inactive: 12.3%.
In the case of `COc1cc(Cl)c(S(=O)(=O)NCCc2c(C)[nH]c3c(C)cccc23)cc1Cl`, the “activity change, negative = cytotoxicity” value was inactive: -6.41%.
To `Cc1ccc(NC(=O)Cc2ccc(-n3c(C)nc4cccnc43)cc2)c(Cl)c1` belongs inactive: -27.4%.

Values taken from PubChem BioAssay AID1508642 (National Center for Advancing Translational Sciences (NCATS), 2021).
